B1: TEV protease; numbered along this chain (parent)
chain: MGESLFKGPRDYNPISSSICHLTNESDGHTTSLYGIGFGPFIITNKHLFRRNNGTLVVQSLHGVFKVKDTTTLQQHLVDGRDMIIIRMPKDFPPFPQKLKFREPQREERICLVTTNFQTKSMSSMVSDTSCTFPSGDGIFWKHWIQTKDGQCGSPLVSTRDGFIVGIHSASNFTNTNNYFTSVPKNFMELLTNQEAQQWVSGWRLNADSVLWGGHKVFMVKPEEPFQPVKEATQL

In the assay the parent is B1. The experiment in a line: raw area under fraction-flipped curve 0-4 h after induction (AUC4h, not background-subtracted), DNA-recorder readout of cleavage of the substrate (dimensionless); higher = more cleavage of the substrate by the protease variant. The following applies: temperature: 34 °C; time window: 0-4 h after rhamnose induction. On the procedure: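 In vivo DNA recorder in E. coli TOP10(DE3) ΔrhaA at 34 °C. Each TEVp single-site mutant (parent TEVp 0) is paired with a single-site variant of the 7-mer TEVs (canonical ENLYFQ|S). The substrate sits between flexible linkers in a Bxb1-sfGFP-TEVs-SsrA fusion, so cleavage stabilises Bxb1 and speeds flipping of a recombination array, read by NGS. The value is the raw area under the fraction-flipped curve over 0-4 h after rhamnose induction (AUC4h), with ≥20 reads per time point. It is not background-subtracted; inactive controls average about 0.047.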

The other results are listed elsewhere or left out. The full chains were built here from the parent and the listed change. Inactive controls read about 0.05.
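Note: Bxb1 expression induced with 0.2% (w/v) L-rhamnose at OD600 near 0.5, cultures sampled hourly, flipped fraction per protease–substrate barcode pair counted by paired-end Illumina sequencing.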

MGESLFKGPRDYNPISSSICHLTNESDGHTTSLYGIGFGPFIITNKHLFRRNNGTLVVQSLHGVFKVKDTTTLQQHLVDGRDMIIIRMPKDFPPFPQKLKFREPQREERICLVTTNFQTKSMSSMVSDTSCTFPSGDGIFWKHWIQTKDGQCGSPLVSTRDGFIVGIHSASNFTNKNNYFTSVPKNFMELLTNQEAQQWVSGWRLNADSVLWGGHKVFMVKPEEPFQPVKEATQL [T176K]: the “area with substrate ENLYFQA” value is 0.0742, the “area with substrate ENLYFQC” value came to 0.0828, the “area with substrate ENLYFQI” value worked out at 0.0618 and the “area with substrate ENLYFQK” value was 0.0618. The “area with substrate ENLYFQL” value stood at 0.0607, the “area with substrate ENLYFQM” value stood at 0.0687, the “area with substrate ENLYFQN” value was 0.064 and the “area with substrate ENLYFQP” value came out at 0.0455. For the same variant, the “area with substrate ENLYFQR” value stood at 0.0682, the “area with substrate ENLYFQS” value came out at 0.073, the “area with substrate ENLYFQT” value is 0.0551 and the “area with substrate ENLYFQW” value was found to be 0.0702. Moreover, the “area with substrate ENLYFQY” value amounted to 0.0406.
Turning to MGESLFKGPRDYNPISSSICHLTNESDGHTTSLYGIGFGPFIITNKHLFRRNNGTLVVQSLHGVFKVKDTTTLQQHLVDGRDMIIIRMPKDFPPFPQKLKFREPQREERICLVTTNFQTKSMSSMVSDTSCTFPSGDGIFWKHWIQTKDGQCGSPLVSTRDGFIVGIHSASNFTNTNNYFTSVPKNFPELLTNQEAQQWVSGWRLNADSVLWGGHKVFMVKPEEPFQPVKEATQL [M188P], the “area with substrate ENLYFQA” value worked out at 0.0707, the “area with substrate ENLYFQC” value worked out at 0.0948, the “area with substrate ENLYFQD” value was 0.0713 and the “area with substrate ENLYFQF” value worked out at 0.0722. The “area with substrate ENLYFQI” value is 0.0603, the “area with substrate ENLYFQK” value was determined as 0.0598, the “area with substrate ENLYFQL” value came to 0.0587 and the “area with substrate ENLYFQM” value worked out at 0.0895. Besides, the “area with substrate ENLYFQN” value came out at 0.0733, the “area with substrate ENLYFQR” value was found to be 0.0535, the “area with substrate ENLYFQS” value turned out to be 0.0975 and the “area with substrate ENLYFQT” value is 0.0476. Moreover, the “area with substrate ENLYFQW” value came to 0.0804.
MGESLFKGPRDYNPISSSICHLTNESDGHTTSLYGIGFGPFIITNKHLFRRNNGTLVVQSLHGVFKVKDTTTLQQHLVDGRDMIIIRMPKDFPPFPQKLKFREPQREERICLVTTNFQTKSMSSMVSDTSCTFPSGDGIFWKHWIQTKDGQCGSPLVSTRDGFIVGIHSALNFTNTNNYFTSVPKNFMELLTNQEAQQWVSGWRLNADSVLWGGHKVFMVKPEEPFQPVKEATQL [S171L]: the “area with substrate ENLYFQA” value amounted to 0.0546, the “area with substrate ENLYFQC” value was found to be 0.0513, the “area with substrate ENLYFQD” value was found to be 0.0615 and the “area with substrate ENLYFQG” value is 0.0782. The “area with substrate ENLYFQH” value worked out at 0.0497, the “area with substrate ENLYFQI” value stood at 0.0524, the “area with substrate ENLYFQK” value is 0.0746 and the “area with substrate ENLYFQL” value worked out at 0.0668. Also, the “area with substrate ENLYFQN” value is 0.0602, the “area with substrate ENLYFQP” value amounted to 0.06, the “area with substrate ENLYFQQ” value was determined as 0.0545 and the “area with substrate ENLYFQR” value came to 0.0502. Besides, the “area with substrate ENLYFQS” value worked out at 0.0609, the “area with substrate ENLYFQT” value was 0.0566 and the “area with substrate ENLYFQY” value was 0.0548.
On to MGESLFKGPRDYNPISSSICHLTNESDGHTTSLYGIGFGPFIITNKHLFRRNNGTLVVQSLHGVFKVKDTTTLQQHLVDGRDMIIIRMPKDFPPFPQKLKFREPQREERICLVTTNFQTKSMSSMVSDTSCTFPSGDGIFWKHWIQTKDGQCGSPLVSTRDGFIVGIHSASNFTNTNNYFTSVPGNFMELLTNQEAQQWVSGWRLNADSVLWGGHKVFMVKPEEPFQPVKEATQL [K185G], for which the “area with substrate ENLYFQA” value turned out to be 0.158, the “area with substrate ENLYFQC” value was 0.138, the “area with substrate ENLYFQD” value came to 0.0601 and the “area with substrate ENLYFQI” value came to 0.0472. Moreover, the “area with substrate ENLYFQK” value amounted to 0.067, the “area with substrate ENLYFQL” value came out at 0.0621, the “area with substrate ENLYFQN” value was 0.0757 and the “area with substrate ENLYFQP” value was 0.0518. In addition, the “area with substrate ENLYFQR” value is 0.0596, the “area with substrate ENLYFQS” value was 0.109, the “area with substrate ENLYFQT” value is 0.0645 and the “area with substrate ENLYFQV” value stood at 0.0663. In addition, the “area with substrate ENLYFQW” value turned out to be 0.0555.
On to MGESLFKGPRDYNPISSSICHLTNESDGHTTSLYGIGFGPFIITNKHLFRRNNGTLVVQSLHGVFKVKDTTTLQQHLVDGRDMIIIRMPKDFPPFPQKLKFREPQREERICLVTTNFQTKSMSSMVSDTSCTFPSGDGIFWKHWIQTKDGQCGSPLVSTRDGFITGIHSASNFTNTNNYFTSVPKNFMELLTNQEAQQWVSGWRLNADSVLWGGHKVFMVKPEEPFQPVKEATQL [V165T], for which the “area with substrate ENLYFQA” value turned out to be 0.0676, the “area with substrate ENLYFQC” value was determined as 0.0803, the “area with substrate ENLYFQI” value stood at 0.0553 and the “area with substrate ENLYFQL” value came to 0.052. In addition, the “area with substrate ENLYFQM” value amounted to 0.0623, the “area with substrate ENLYFQP” value was 0.0512, the “area with substrate ENLYFQR” value is 0.0338 and the “area with substrate ENLYFQS” value came out at 0.0781. The “area with substrate ENLYFQT” value was found to be 0.0481, the “area with substrate ENLYFQV” value came out at 0.0776, the “area with substrate ENLYFQW” value was determined as 0.0494 and the “area with substrate ENLYFQY” value was determined as 0.0513.
In the case of MGESLFKGPRDYNPISSSICHLTNESDGHTTSLYGIGFGPFIITNKHLFRRNNGTLVVQSLHGVFKVKDTTTLQQHLVDGRDMIIIRMPKDFPPFPQKLKFREPQREERICLVTTNFQTKSMSSMVSDTSCTFPSGDGIFWKHWIQTKDGQCGSPLVSTRDGFIVGIHSASNFTNTNNYFTSVPKNMMELLTNQEAQQWVSGWRLNADSVLWGGHKVFMVKPEEPFQPVKEATQL [F187M], the “area with substrate ENLYFQA” value was 0.145, the “area with substrate ENLYFQC” value came to 0.125, the “area with substrate ENLYFQE” value was 0.066 and the “area with substrate ENLYFQG” value stood at 0.111. In addition, the “area with substrate ENLYFQH” value worked out at 0.0824, the “area with substrate ENLYFQI” value came to 0.0389, the “area with substrate ENLYFQL” value came to 0.0642 and the “area with substrate ENLYFQM” value stood at 0.0997. Also, the “area with substrate ENLYFQN” value was 0.0887, the “area with substrate ENLYFQP” value amounted to 0.0488, the “area with substrate ENLYFQR” value amounted to 0.056 and the “area with substrate ENLYFQS” value is 0.0992. Further, the “area with substrate ENLYFQV” value was determined as 0.0576, the “area with substrate ENLYFQW” value turned out to be 0.0733 and the “area with substrate ENLYFQY” value came to 0.0678.
On to MGESLFKGPRDYNPISSSICHLTNESDGHTTSLYGIGFGPFIITNKHLFRRNNGTLVVQSLHGVFKVKDTTTLQQHLVDGRDMIIIRMPKDFPPFPQKLKFREPQREERICLVTTNFQTKSMSSMVSDTSCTFPSGDGIFWKHWIQTKDGQCGSPLVSTRDGFIVGIHSASNFTNTNNYFTSVPKNFMEMLTNQEAQQWVSGWRLNADSVLWGGHKVFMVKPEEPFQPVKEATQL [L190M], for which the “area with substrate ENLYFQA” value worked out at 0.0904, the “area with substrate ENLYFQC” value is 0.113, the “area with substrate ENLYFQD” value was 0.0501 and the “area with substrate ENLYFQG” value is 0.108. Besides, the “area with substrate ENLYFQK” value amounted to 0.0699, the “area with substrate ENLYFQM” value is 0.091, the “area with substrate ENLYFQN” value amounted to 0.0775 and the “area with substrate ENLYFQQ” value was 0.0684. Besides, the “area with substrate ENLYFQR” value stood at 0.0573, the “area with substrate ENLYFQS” value worked out at 0.102, the “area with substrate ENLYFQV” value was found to be 0.0662 and the “area with substrate ENLYFQW” value was determined as 0.0625. The “area with substrate ENLYFQY” value turned out to be 0.0437.
As to MGESLFKGPRDYNPISSSICHLTNESDGHTTSLYGIGFGPFIITNKHLFRRNNGTLVVQSLHGVFKVKDTTTLQQHLVDGRDMIIIRMPKDFPPFPQKLKFREPQREERICLVTTNFQTKSMSSMVSDTSCTFPSGDGIFWKHWIQTKDGQCGSPLVSTRDGFIVGIHSASNFTNTNNYFTSVPKNFMEYLTNQEAQQWVSGWRLNADSVLWGGHKVFMVKPEEPFQPVKEATQL [L190Y], the “area with substrate ENLYFQA” value was 0.0693, the “area with substrate ENLYFQC” value worked out at 0.122, the “area with substrate ENLYFQD” value was determined as 0.0853 and the “area with substrate ENLYFQF” value was found to be 0.0602. In addition, the “area with substrate ENLYFQG” value turned out to be 0.0678, the “area with substrate ENLYFQK” value stood at 0.0601, the “area with substrate ENLYFQL” value was 0.061 and the “area with substrate ENLYFQM” value was 0.0764. Also, the “area with substrate ENLYFQP” value came out at 0.0531, the “area with substrate ENLYFQR” value was 0.0688, the “area with substrate ENLYFQS” value worked out at 0.0857 and the “area with substrate ENLYFQT” value came out at 0.0648. Also, the “area with substrate ENLYFQV” value came out at 0.0534, the “area with substrate ENLYFQW” value turned out to be 0.0743 and the “area with substrate ENLYFQY” value turned out to be 0.0698.
As for MGESLFKGPRDYNPISSSICHLTNESDGHTTSLYGIGFGPFIITNKHLFRRNNGTLVVQSLHGVFKVKDTTTLQQHLVDGRDMIIIRMPKDFPPFPQKLKFREPQREERICLVTTNFQTKSMSSMVSDTSCTFPSGDGIFWKHWIQTKDGQCGSPLVSTRDGFIVGIHSASNFTNTNNYFTSHPKNFMELLTNQEAQQWVSGWRLNADSVLWGGHKVFMVKPEEPFQPVKEATQL [V183H], the “area with substrate ENLYFQA” value was 0.0641, the “area with substrate ENLYFQC” value is 0.0688, the “area with substrate ENLYFQF” value amounted to 0.0568 and the “area with substrate ENLYFQH” value was 0.0564. Also, the “area with substrate ENLYFQI” value amounted to 0.0388, the “area with substrate ENLYFQK” value came to 0.0268, the “area with substrate ENLYFQL” value was found to be 0.0626 and the “area with substrate ENLYFQM” value was 0.0504. Besides, the “area with substrate ENLYFQN” value was 0.0574, the “area with substrate ENLYFQP” value came to 0.0496, the “area with substrate ENLYFQQ” value amounted to 0.057 and the “area with substrate ENLYFQR” value came out at 0.0493. The “area with substrate ENLYFQS” value was 0.0609, the “area with substrate ENLYFQT” value is 0.0603 and the “area with substrate ENLYFQW” value stood at 0.0528.

Source of the values: the supplement of paper PMC12217912.
